For experiment [1], the target named is GFP-tagged SS18 (GFP-SS18), wild type (human) (UniProt Q15532). The experiment in a line: co-IP; HEK293T cells transfected with GFP- and Myc-tagged plasmids, lysate (50 mM Tris-HCl pH 7.4, 150 mM NaCl, 0.5% NP40, 0.5% Triton X-100), agarose-conjugated anti-GFP antibodies 30 min at 4 °C, blot with anti-Myc and anti-GFP.
In experiment [2] the target is T1, GFP-tagged SNF11 (GFP-SNF11) (S. cerevisiae) (UniProt P38956).
T1 sequence: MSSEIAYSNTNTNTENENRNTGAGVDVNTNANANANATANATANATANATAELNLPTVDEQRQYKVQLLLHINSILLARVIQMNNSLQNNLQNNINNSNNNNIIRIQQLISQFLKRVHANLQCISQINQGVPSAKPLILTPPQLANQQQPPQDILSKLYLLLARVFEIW
The experiment is described as above.

By UniProt entry, the sequences of proteins in these tests, tags left out. Where a name states a change or a piece, a line headed by the entry shows the natural chain unless it says otherwise. Chains listed by the source or under a name are the forms on record and can include a tag or linker.
GFP-tagged SS18 (GFP-SS18), wild type (Q15532-2, form named): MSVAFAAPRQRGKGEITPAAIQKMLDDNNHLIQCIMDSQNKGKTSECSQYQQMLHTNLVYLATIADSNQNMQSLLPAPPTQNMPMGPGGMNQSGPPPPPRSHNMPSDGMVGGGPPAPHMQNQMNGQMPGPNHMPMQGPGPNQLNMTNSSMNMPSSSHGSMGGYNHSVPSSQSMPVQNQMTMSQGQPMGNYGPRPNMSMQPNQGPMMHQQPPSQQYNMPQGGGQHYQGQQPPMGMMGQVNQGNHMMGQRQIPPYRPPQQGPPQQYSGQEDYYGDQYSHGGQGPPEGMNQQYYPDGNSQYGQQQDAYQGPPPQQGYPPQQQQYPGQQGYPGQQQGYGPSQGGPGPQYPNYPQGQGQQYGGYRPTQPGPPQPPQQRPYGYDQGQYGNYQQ
SS18(3M), purified recombinant (I32E, L54E, A65E) (Q15532-2, form named): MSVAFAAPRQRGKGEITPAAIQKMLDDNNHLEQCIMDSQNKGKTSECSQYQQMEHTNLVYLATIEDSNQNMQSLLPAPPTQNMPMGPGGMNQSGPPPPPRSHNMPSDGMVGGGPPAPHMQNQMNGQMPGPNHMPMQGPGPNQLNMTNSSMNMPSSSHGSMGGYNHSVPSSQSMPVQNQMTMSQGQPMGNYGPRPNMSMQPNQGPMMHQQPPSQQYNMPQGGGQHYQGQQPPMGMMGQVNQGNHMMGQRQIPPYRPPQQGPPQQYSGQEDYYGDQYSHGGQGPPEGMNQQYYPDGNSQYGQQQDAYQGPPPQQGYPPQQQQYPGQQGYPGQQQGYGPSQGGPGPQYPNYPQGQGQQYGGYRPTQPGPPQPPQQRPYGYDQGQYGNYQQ
UniProt Q16384: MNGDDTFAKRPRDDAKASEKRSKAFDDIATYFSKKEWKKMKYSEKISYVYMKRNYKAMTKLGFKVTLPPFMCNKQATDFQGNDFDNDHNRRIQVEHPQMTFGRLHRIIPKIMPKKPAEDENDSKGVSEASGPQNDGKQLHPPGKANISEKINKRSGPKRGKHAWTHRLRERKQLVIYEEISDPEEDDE
UniProt P22082: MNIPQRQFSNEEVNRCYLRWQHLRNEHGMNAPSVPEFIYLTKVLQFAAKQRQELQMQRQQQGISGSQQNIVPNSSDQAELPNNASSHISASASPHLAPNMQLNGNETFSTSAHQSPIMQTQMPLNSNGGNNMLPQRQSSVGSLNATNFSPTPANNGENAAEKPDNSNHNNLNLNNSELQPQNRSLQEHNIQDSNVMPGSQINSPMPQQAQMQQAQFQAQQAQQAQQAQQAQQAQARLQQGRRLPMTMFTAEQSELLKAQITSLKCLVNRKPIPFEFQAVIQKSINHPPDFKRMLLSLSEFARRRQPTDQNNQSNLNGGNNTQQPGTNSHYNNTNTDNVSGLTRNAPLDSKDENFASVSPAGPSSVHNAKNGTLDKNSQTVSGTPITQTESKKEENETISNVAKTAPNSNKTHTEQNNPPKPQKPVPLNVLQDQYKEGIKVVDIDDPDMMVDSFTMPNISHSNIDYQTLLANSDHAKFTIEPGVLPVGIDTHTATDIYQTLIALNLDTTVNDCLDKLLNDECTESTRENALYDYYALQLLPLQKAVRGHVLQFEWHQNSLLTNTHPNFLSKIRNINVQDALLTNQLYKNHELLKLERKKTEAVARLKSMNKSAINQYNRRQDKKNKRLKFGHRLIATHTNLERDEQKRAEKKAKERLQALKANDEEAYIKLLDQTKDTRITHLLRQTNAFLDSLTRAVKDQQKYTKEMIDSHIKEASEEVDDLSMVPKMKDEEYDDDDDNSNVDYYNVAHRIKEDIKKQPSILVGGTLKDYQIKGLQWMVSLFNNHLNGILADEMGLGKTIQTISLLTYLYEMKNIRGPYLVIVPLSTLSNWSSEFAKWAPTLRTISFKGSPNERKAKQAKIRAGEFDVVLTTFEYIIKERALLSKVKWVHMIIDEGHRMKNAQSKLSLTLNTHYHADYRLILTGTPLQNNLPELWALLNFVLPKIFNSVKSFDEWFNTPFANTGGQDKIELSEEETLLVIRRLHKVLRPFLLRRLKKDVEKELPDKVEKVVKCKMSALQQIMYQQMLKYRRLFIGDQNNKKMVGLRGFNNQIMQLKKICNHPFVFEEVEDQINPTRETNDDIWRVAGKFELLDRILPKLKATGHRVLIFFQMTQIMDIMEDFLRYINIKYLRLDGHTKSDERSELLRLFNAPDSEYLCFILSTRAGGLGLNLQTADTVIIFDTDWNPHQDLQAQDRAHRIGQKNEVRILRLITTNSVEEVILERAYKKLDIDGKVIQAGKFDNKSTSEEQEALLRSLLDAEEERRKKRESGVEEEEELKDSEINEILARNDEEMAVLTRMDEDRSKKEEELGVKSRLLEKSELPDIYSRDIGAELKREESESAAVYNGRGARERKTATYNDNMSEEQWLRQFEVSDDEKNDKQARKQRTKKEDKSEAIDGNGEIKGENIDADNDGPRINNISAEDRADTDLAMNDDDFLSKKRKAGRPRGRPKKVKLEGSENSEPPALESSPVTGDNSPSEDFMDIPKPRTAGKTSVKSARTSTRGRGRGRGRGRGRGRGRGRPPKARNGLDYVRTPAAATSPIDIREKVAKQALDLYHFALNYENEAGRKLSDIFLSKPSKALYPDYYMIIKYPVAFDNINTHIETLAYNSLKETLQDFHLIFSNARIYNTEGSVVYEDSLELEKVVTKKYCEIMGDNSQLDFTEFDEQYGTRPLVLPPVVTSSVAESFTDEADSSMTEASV

The target of experiment [3] is SS18(3M)-SSX1, GFP-tagged (I32E, L54E, A65E in SS18) (human) (UniProt Q15532+Q16384). The description is as above.
Experiment [4] concerns the target SS18-SSX1 oncofusion protein, wild type, GFP-tagged (human) (UniProt Q15532+Q16384). The experiment is described as above.
Experiment [5] addresses SS18(3M), purified recombinant (I32E, L54E, A65E) (human) (UniProt Q15532). Description: co-sedimentation; sedimentation assay of phase-separated SS18 with BRG1^(1-282), each protein 60 µM, 50 mM Tris-HCl pH 7.5, 150 mM NaCl; supernatant and pellet on SDS-PAGE; both purified.

These are yes or no findings as the source states them, for the method shown. For some of these results: In cells and extracts the contact can be indirect. Some results given as binding are weak or reduced against the parent protein; the word gives no strength. For some of these results: Where a sequence is shown, tags or fusion partners need not be part of it.

As to “GFP-tagged SS18 (GFP-SS18), wild type (from UniProt Q15532-2 1-387)”, in experiment [1], the binding entry is recorded as “binds”.
Same read-out and setting: the same measure for “Myc-BRG1, wild type (from UniProt P51532 1-1647)”: “binds”.
As for “Myc-SNF2 Q252A, Q259A (from UniProt P22082 1-1703)”, the binding entry in experiment [2] is given as “no binding”.
For “Myc-SNF2, wild type (from UniProt P22082 1-1703)”, in experiment [2], the binding entry was “binds”.
Turning to “SS18(3M)-SSX1, GFP-tagged (I32E, L54E, A65E in SS18) (from UniProt Q15532-2 1-379; Q16384 111-188)”, in experiment [3], the binding result was “binds”.
Take “SS18-SSX1 oncofusion protein, wild type, GFP-tagged (from UniProt Q15532-2 1-379; Q16384 111-188)”: the binding result in experiment [4] is reported as “binds”.

B1: BRG1^(1-282), N-terminal 282-residue fragment of BRG1 (domain or fragment, human, UniProt P51532 1-282, looked up)
chain: MSTPDPPLGGTPRPGPSPGPGPSPGAMLGPSPGPSPGSAHSMMGPSPGPPSAGHPIPTQGPGGYPQDNMHQMHKPMESMHEKGMSDDPRYNQMKGMGMRSGGHAGMGPPPSPMDQHSQGYPSPLGGSEHASSPVPASGPSSGPQMSSGPGGAPLDGADPQALGQQNRGPTPFNQNQLHQLRAQIMAYKMLARGQPLPDHLQMAVQGKRPMPGMQQQMPTLPPPSVSATGPGPGPGPGPGPGPGPAPPNYSRPHGMGGPNMPPPGPSGVPPGMPGQPPGGPPK
notes: Cloned into a modified pET32a (Trx-his6, N-terminal); the methods describe PreScission cleavage of the Trx-his6 tag in general; Cy3-labelled only for imaging; source: E. coli BL21(DE3) Codon Plus, purified (Ni-NTA, SEC, ion exchange); not shown: Trx, N-terminal, cleaved; His6, N-terminal, cleaved
Regarding B1, in experiment [5], the binding result was “no binding (tested: 60 µM)”.

The values above are taken from publication PMC9117659, “Phase transition and remodeling complex assembly are important for SS18-SSX oncogenic activity in synovial sarcomas” (Nature Communications, 2022).
